The shares of active, inactive and inconclusive entries below differ from those in the screen. For some of these results: Potencies beside an inconclusive call are fits to weak or partial responses and may not hold up. Activity calls are given as the source filed them. Unless noted, the call rests on the fitted dose curve; in most records, active means well fitted curve in the direction sought with a large enough effect in the repeat runs; inconclusive means weak or mixed curves; inactive means no such curve, though single readings can be large; an effect the other way counts as inactive or inconclusive.
Assays:
[1] = qHTS assay to identify aromatase inhibitors - cell viability counter screen (AID 743084); conditions: MCF-7 aro ERE viability, CellTiter-Fluor, 24 h; activity change, negative = cytotoxicity: at 70.3 µM (top of the series);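 further: cells stimulated with testosterone during compound exposure; nearly all actives have a fitted effect of over 55% in size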; further: potency means the concentration at half of the fitted maximal effect
[2] = target: Peroxisome proliferator-activated receptor gamma (Homo sapiens) (UniProt P37231); test: qHTS assay to identify small molecule antagonists of the peroxisome proliferator-activated receptor gamma (PPARg) signaling pathway (AID 743191; calls by dose curve; further: nearly all actives have a fitted effect of over 30% in size; further: potency means the concentration at half of the fitted maximal effect; on ratio activity, negative = inhibition: on the % scale 0 is the no-effect control and ±100 the full control effect); conditions: HEK293H PPARg-UAS-bla, beta-lactamase ratio, antagonist, 17 h; ratio activity, negative = inhibition: at 62.6 µM (top of the series) unless noted
Chain of UniProt P37231 (P37231 whole entry, looked up): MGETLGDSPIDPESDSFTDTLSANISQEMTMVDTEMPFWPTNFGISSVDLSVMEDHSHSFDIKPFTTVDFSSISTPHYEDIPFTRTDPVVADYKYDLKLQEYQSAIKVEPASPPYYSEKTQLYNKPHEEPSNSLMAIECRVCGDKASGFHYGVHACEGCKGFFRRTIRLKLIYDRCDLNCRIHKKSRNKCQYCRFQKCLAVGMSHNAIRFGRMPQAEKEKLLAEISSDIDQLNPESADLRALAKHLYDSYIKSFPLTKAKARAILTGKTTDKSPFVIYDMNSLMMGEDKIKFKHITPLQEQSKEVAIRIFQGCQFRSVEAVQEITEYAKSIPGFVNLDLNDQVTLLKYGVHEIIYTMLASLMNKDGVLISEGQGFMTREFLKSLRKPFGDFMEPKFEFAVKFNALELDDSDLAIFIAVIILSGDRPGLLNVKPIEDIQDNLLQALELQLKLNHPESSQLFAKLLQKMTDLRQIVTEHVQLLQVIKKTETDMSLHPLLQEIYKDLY
Method in brief: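 GeneBLAzer PPARg UAS-bla HEK293H cells carrying a UAS-driven beta-lactamase reporter were plated at 3000 cells/well, preincubated 5 h at 37C, then given compound for 17 h at 37C; LiveBLAzer B/G FRET substrate was read after 1 h at room temperature.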

[3] = qHTS assay to identify small molecule antagonists of the peroxisome proliferator-activated receptor gamma (PPARg) signaling pathway - cell viability counter screen (AID 743194); conditions: PPARg-bla HEK293H viability, CellTiter-Glo luminescence, 17 h, co-treated with 50 nM rosiglitazone; activity change, negative = cytotoxicity: at 62.6 µM (top of the series); further: nearly all actives have a fitted effect of over 55% in size; further: potency means the concentration at half of the fitted maximal effect
Method in brief: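 PPARg-UAS-bla HEK293H cells were plated, rested 5 h at 37 C, then treated with compounds plus rosiglitazone (50 nM final) for 17 h at 37 C; viability was then read by CellTiter-Glo luminescence after 30 min at room temperature.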

[4] = qHTS assay for small molecule agonists of the antioxidant response element (ARE) signaling pathway (AID 743202; active means well fitted activation curve with a large enough effect in the signal ratio in the repeat runs, not every such curve was filed as active; inconclusive means weak or mixed curves, or effect the other way; inactive means no such curve, though single readings can be large or run the other way; the % refers to the signal ratio; further: potency means the concentration at half of the fitted maximal effect); conditions: HepG2 ARE-bla reporter, beta-lactamase FRET, 16 h
Method in brief: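 Steps: seed ARE-bla HepG2 cells (2,000/well); incubate 5 h at 37 C; add compounds by pin tool; incubate 16 h at 37 C; add FRET substrate; read fluorescence after 2 h at RT.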

[5] = qHTS assay for small molecule activators of the heat shock response signaling pathway - cell viability counter screen (AID 743209); conditions: HSE-bla HeLa viability, CellTiter-Glo luminescence, 5 h; activity change, negative = cytotoxicity: at 62.6 µM (top of the series); further: nearly all actives have a fitted effect of over 50% in size; further: potency means the concentration at half of the fitted maximal effect
Method in brief: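 Viability of HSE-bla HeLa cells is measured with CellTiter-Glo in the wells already used for the reporter read. Compound exposure lasts 5 h at 37 C, and luminescence is read after 30 min at room temperature.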

[6] = qHTS assay for small molecule activators of the heat shock response signaling pathway (AID 743210; active means well fitted activation curve with a large enough effect in the signal ratio in the repeat runs, with a control signal flat, not every such curve was filed as active; inconclusive means weak or mixed curves; the % refers to the signal ratio; further: potency means the concentration at half of the fitted maximal effect); conditions: HeLa HSE-bla reporter, beta-lactamase ratio, 5 h; activation: at 62.6 µM (top of the series)
Method in brief: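 Activation of heat shock element-controlled beta-lactamase expression is measured in HeLa cells by LiveBLAzer FRET fluorescence, with compound exposure lasting 5 h at 37 C and substrate loading 2.5 h at room temperature.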

[7] = qHTS assay to identify small molecule agonists of the peroxisome proliferator-activated receptor delta (PPARd) signaling pathway - cell viability counter screen (AID 743211); conditions: PPARd-bla HEK293H viability, CellTiter-Glo luminescence, 17 h; activity change, negative = cytotoxicity: at 62.6 µM (top of the series); further: nearly all actives have a fitted effect of over 55% in size; further: potency means the concentration at half of the fitted maximal effect
Method in brief: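 Counter screen for cytotoxicity run in parallel with the PPARd reporter screen. Beta-lactamase reporter HEK293H cells exposed to compounds 17 h; ATP-based CellTiter-Glo luminescence quantified viability.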

[8] = target: Bile acid receptor (Homo sapiens) (UniProt Q96RI1); test: qHTS assay to identify small molecule antagonists of the farnesoid-X-receptor (FXR) signaling pathway (AID 743217; active means well fitted inhibition curve with a large enough effect in the signal ratio in the repeat runs, not every such curve was filed as active; inconclusive means weak or mixed curves, or effect the other way; inactive means no such curve, though single readings can be large or run the other way; the % refers to the signal ratio; further: potency means the concentration at half of the fitted maximal effect; on activity change, negative = inhibition: on the % scale 0 is the no-effect control and ±100 the full control effect); conditions: HEK293T FXR-UAS-bla, beta-lactamase ratio, CDCA-stimulated, 16 h; activity change, negative = inhibition: at 62.6 µM (top of the series) unless noted
Chain of UniProt Q96RI1 (Q96RI1 whole entry, looked up): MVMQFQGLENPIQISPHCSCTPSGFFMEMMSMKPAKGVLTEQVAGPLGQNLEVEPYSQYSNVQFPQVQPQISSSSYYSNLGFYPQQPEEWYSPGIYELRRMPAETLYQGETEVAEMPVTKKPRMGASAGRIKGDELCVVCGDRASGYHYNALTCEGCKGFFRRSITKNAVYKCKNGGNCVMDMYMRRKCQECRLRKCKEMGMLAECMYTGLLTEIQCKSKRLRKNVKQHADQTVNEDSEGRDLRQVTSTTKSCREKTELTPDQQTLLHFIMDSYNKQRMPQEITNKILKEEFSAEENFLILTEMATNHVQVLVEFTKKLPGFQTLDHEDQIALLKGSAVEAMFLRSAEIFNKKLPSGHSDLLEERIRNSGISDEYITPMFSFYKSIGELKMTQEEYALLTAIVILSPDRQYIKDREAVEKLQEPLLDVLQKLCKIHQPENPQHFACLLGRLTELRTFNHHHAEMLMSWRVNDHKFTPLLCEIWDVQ
Method in brief: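 Screen of the Tox21 10K library in quantitative HTS format using FXR-UAS-bla HEK 293T reporter cells. Agonist chenodeoxycholic acid, 50 uM final, added with compounds; 16 h incubation at 37 °C; beta-lactamase FRET fluorescence measured.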

[9] = target: Bile acid receptor (Homo sapiens) (UniProt Q96RI1); test: qHTS assay to identify small molecule agonists of the farnesoid-X-receptor (FXR) signaling pathway (AID 743220; active means well fitted activation curve with a large enough effect in the signal ratio in the repeat runs, not every such curve was filed as active; inconclusive means weak or mixed curves, or effect the other way; the % refers to the signal ratio; further: potency means the concentration at half of the fitted maximal effect; on activation: on the % scale 0 is the no-effect control and ±100 the full control effect); conditions: HEK293T FXR-UAS-bla, beta-lactamase FRET ratio, 16 h; activation: at 62.6 µM (top of the series) unless noted
Method in brief: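 FXR-UAS-bla HEK 293T cells carrying a UAS-driven beta-lactamase reporter were plated for 5 h at 37C/5% CO2, then exposed to DMSO-dissolved Tox21 10K compounds for 16 h at 37C. A LiveBLAzer B/G FRET substrate was loaded for 2 h at room temperature before fluorescence reading.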

[10] = qHTS assay to identify small molecule antagonists of the farnesoid-X-receptor (FXR) signaling pathway - cell viability counter screen (AID 743221; active means well fitted cell-killing curve with a large enough effect in the repeat runs, not every such curve was filed as active; inconclusive means weak or mixed curves, or effect the other way; inactive means no such curve, though single readings can be large or run the other way; further: nearly all actives have a fitted effect of over 50% in size; further: potency means the concentration at half of the fitted maximal effect); conditions: FXR-bla HEK293T viability, CellTiter-Glo luminescence, 16 h; activity change, negative = cytotoxicity: at 62.6 µM (top of the series)
Method in brief: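 Multiplexed counter screen: viability of FXR-bla HEK 293T cells under agonist stimulation by chenodeoxycholic acid (50 uM, final) and test compound for 16 h at 37 C, measured by CellTiter-Glo luminescence in the reporter wells.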

[11] = target: Vitamin D3 receptor (Homo sapiens) (UniProt P11473); test: qHTS assay to identify small molecule antagonists of the vitamin D receptor (VDR) signaling pathway (AID 743223; active means well fitted inhibition curve with a large enough effect in the signal ratio in the repeat runs, not every such curve was filed as active; inconclusive means weak or mixed curves, or effect the other way; inactive means no such curve, though single readings can be large or run the other way; the % refers to the signal ratio; further: on the % scale 0 is the no-effect control and ±100 the full control effect); conditions: VDR-UAS-bla HEK293T, beta-lactamase FRET ratio, 16 h; activity change, negative = inhibition: at 61 µM (top of the series) unless noted
Chain of UniProt P11473 (P11473 whole entry, looked up): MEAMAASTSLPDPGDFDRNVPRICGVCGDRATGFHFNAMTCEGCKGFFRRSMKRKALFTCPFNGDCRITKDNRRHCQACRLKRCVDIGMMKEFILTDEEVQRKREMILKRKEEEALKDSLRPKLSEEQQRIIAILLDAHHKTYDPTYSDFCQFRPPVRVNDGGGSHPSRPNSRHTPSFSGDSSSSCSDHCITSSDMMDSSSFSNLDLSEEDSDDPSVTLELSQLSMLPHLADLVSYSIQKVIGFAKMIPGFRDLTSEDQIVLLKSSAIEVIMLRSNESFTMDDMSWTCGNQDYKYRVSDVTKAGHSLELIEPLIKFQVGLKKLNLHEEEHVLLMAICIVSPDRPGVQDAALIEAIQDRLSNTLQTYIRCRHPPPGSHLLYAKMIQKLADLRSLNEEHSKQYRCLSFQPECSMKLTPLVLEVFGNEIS
Method in brief: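 Cells carrying a VDR-driven beta-lactamase reporter (VDR-bla) were co-treated with compound and 3 nM final 1alpha,25-dihydroxyvitamin D3 for 16 h at 37C; reporter activity was measured as FRET substrate fluorescence after 2 h at room temperature.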

[12] = qHTS assay to identify small molecule agonists of the farnesoid-X-receptor (FXR) signaling pathway - cell viability counter screen (AID 743218); conditions: FXR-bla HEK293T viability, CellTiter-Glo luminescence, 16 h; viability change, negative = cytotoxic: at 62.6 µM (top of the series) unless noted; further: nearly all actives have a fitted effect of over 45% in size; further: potency means the concentration at half of the fitted maximal effect
Method in brief: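 Viability of FXR-bla HEK 293T cells is measured by ATP-based CellTiter-Glo luminescence following 16 h compound treatment at 37 C and a prior 2 h room-temperature beta-lactamase substrate step.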

[13] = target: Peroxisome proliferator-activated receptor delta (Homo sapiens) (UniProt Q03181); test: qHTS assay to identify small molecule antagonists of the peroxisome proliferator-activated receptor delta (PPARd) signaling pathway (AID 743215; active means well fitted inhibition curve with a large enough effect in the signal ratio in the repeat runs, not every such curve was filed as active; inconclusive means weak or mixed curves, or effect the other way; inactive means no such curve, though single readings can be large or run the other way; the % refers to the signal ratio;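 further: cells stimulated with agonist L165041 at 300 nM final during compound exposure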; further: potency means the concentration at half of the fitted maximal effect); conditions: HEK293H PPARd-UAS-bla, beta-lactamase FRET ratio, antagonist, 17 h; ratio activity, negative = inhibition: at 62 µM (top of the series) unless noted
Chain of UniProt Q03181 (Q03181 whole entry, looked up): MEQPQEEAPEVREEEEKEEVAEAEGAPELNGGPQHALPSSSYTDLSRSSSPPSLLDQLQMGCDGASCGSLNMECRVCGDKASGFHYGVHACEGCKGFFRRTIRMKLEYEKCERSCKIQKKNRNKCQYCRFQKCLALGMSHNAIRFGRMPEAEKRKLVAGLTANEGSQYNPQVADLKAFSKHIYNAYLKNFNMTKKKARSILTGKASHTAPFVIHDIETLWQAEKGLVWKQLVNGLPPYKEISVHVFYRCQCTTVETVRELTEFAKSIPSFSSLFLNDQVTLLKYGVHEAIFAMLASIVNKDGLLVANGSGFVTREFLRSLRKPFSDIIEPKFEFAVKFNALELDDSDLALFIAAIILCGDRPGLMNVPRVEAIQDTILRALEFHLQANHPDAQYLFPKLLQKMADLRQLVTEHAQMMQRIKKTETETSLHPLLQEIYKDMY
Method in brief: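 Plated HEK293H PPARd-bla cells rested 5 h at 37 C and 5% CO2. Compound, then agonist L165041 at 300 nM final, was added; 17 h at 37 C followed. Substrate loading, 2 h room temperature, fluorescence measured.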

[14] = target: Vitamin D3 receptor (Homo sapiens) (UniProt P11473); test: qHTS assay to identify small molecule agonists of the vitamin D receptor (VDR) signaling pathway (AID 743222; calls by dose curve; further: potency means the concentration at half of the fitted maximal effect); conditions: HEK293T VDR-UAS-bla, beta-lactamase FRET ratio, 16 h; activation: at 63.5 µM (top of the series) unless noted
Method in brief: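 Fluorescence from cleaved LiveBLAzer B/G FRET substrate served as readout. VDR-bla cells had been treated 16 h at 37C with test compounds in DMSO, following a 4 h settling period, and substrate was loaded for 2 h at RT.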

[15] = qHTS assay to identify small molecule antagonists of the peroxisome proliferator-activated receptor delta (PPARd) signaling pathway - cell viability counter screen (AID 743213); conditions: PPARd-bla HEK293H viability, CellTiter-Glo luminescence, 17 h; viability change, negative = cytotoxic: at 62 µM (top of the series) unless noted; further: nearly all actives have a fitted effect of over 50% in size; further: potency means the concentration at half of the fitted maximal effect
Method in brief: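 Viability counter-screen, qHTS format: PPARd-bla HEK293H, L165041 300 nM final, 17 h compound exposure at 37 C, CellTiter-Glo luminescence after 30 min RT.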

[16] = target: Peroxisome proliferator-activated receptor delta (Homo sapiens) (UniProt Q03181); test: qHTS assay to identify small molecule agonists of the peroxisome proliferator-activated receptor delta (PPARd) signaling pathway (AID 743212; calls by dose curve; further: potency means the concentration at half of the fitted maximal effect); conditions: HEK293H PPARd-UAS-bla, beta-lactamase FRET ratio, 17 h; activation: at 62.6 µM (top of the series) unless noted
Method in brief: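 Cells expressing a UAS-driven beta-lactamase reporter (PPARd-bla HEK293H) were given test compounds after a 5 h settle and kept at 37 C. Reporter activity was then measured as FRET fluorescence using LiveBLAzer B/G substrate.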

[17] = activation: at 73.3 µM (top of the series) unless noted
Tags describe the fitted curve by direction and shape or compound fluorescence and quenching.

O=C1Nc2ccc(Cl)cc2[C@@](C#CC2CC2)(C(F)(F)F)O1
Potency [1]: inconclusive: 26.6 µM [cytotoxic, single point]
Potency [2]: inconclusive: 33.5 µM [inhibitor, single point]
Potency [3]: inconclusive: 33.5 µM [cytotoxic, single point]
Potency [4, 17]: active: 13.3 µM
Potency [5]: active: 5.31 µM
Potency [6]: inconclusive: 33.5 µM
Potency [7]: inconclusive: 33.5 µM [cytotoxic, single point]
Potency [8]: inconclusive: 33.5 µM [inhibitor, single point]
activation [9]: inconclusive: 15.7%
Potency [10]: inconclusive: 33.5 µM [falling, single point]
Potency [11]: inactive

Nc1ccc(Cl)cc1Cl
Potency [1]: inconclusive: 76.2 µM [cytotoxic, single point]
Potency [2]: inactive
activity change, negative = inhibition [8]: inconclusive: -18.3%
Potency [12]: inactive
Potency [9]: inconclusive: 0.219 µM [rising, full curve, poor fit]

C=CC(C)(CCC=C(C)C)OC(=O)/C=C/c1ccccc1 (stereo not given)
Potency [1]: inconclusive: 68.6 µM [cytotoxic, single point]
ratio activity, negative = inhibition [2]: inconclusive: 19.9%
Potency [5]: inconclusive: 61.6 µM [cytotoxic, partial curve, poor fit]
Potency [6]: inconclusive: 40.4 µM
Potency [13]: inconclusive: 54.9 µM [inhibitor, single point]
Potency [14]: inconclusive: 43.6 µM

CCCCOC(=O)CCC(C)=O
Potency [1]: inactive
ratio activity, negative = inhibition [2]: inconclusive: 7.88%
Potency [4, 17]: inactive
Potency [15]: inconclusive: 61.6 µM [cytotoxic, single point]
ratio activity, negative = inhibition [13]: inconclusive: -31.7%

CCC(=O)OCCc1ccccc1
Potency [1]: inactive
Potency [2]: inactive
Potency [4, 17]: inconclusive: 46.5 µM [rising, partial curve]
Potency [5]: inconclusive: 52.6 µM [cytotoxic, single point]
Potency [6]: inconclusive: 52.6 µM [falling, single point]
Potency [7]: inconclusive: 59.1 µM [cytotoxic, single point]
activation [16]: inconclusive: -13.7%
Potency [15]: inconclusive: 46.9 µM [cytotoxic, partial curve, poor fit]
activity change, negative = inhibition [8]: inconclusive: -43.3%
Potency [12]: inactive
activity change, negative = inhibition [11]: inconclusive: -7.68%

CC(=O)C1(C)CC2=C(CCCC2(C)C)CC1C (stereo not given)
activity change, negative = cytotoxicity [1]: inconclusive: -30.8% [cytotoxic]
Potency [2]: inactive
Potency [5]: inactive
Potency [7]: inactive

N[C@@H](CS)C(=O)O
Potency [1]: inactive
ratio activity, negative = inhibition [2]: inconclusive: 1.94% [at 81.1 µM]
Potency [13]: inactive
Potency [10]: inactive
activity change, negative = inhibition [11]: inconclusive: 0% [at 78.8 µM]

Cc1cc2c(cc1C(F)(F)F)N(C(=O)Nc1ccc(Oc3cccnc3C)nc1)CC2
Potency [1]: inconclusive: 22 µM [cytotoxic, full curve]
ratio activity, negative = inhibition [2]: inconclusive: 47%
Potency [4, 17]: inconclusive: 69.6 µM [falling, partial curve, poor fit]
Potency [6]: inconclusive: 55.8 µM
Potency [7]: active: 44.3 µM
Potency [15]: active: 19.8 µM
activity change, negative = inhibition [8]: inconclusive: -10.9%
Potency [12]: active: 35.2 µM
Potency [9]: inactive
Potency [10]: inactive
activity change, negative = inhibition [11]: inconclusive: 30.8%

Cc1[nH]c(=O)c(C#N)cc1-c1ccncc1
Potency [1]: inconclusive: 27.3 µM [rising, partial curve, poor fit]
Potency [2]: inconclusive: 24.5 µM [activator] and inactive
activation [4, 17]: inconclusive: 11.7%
activation ([4]; at 73.3 µM (top of the series)): inactive: -2.39%
Potency [7]: inconclusive: 2.75 µM [cytotoxic, full curve, poor fit]
Potency [16]: inconclusive: 1.72 µM [rising, full curve, poor fit]
Potency [15]: inconclusive: 0.0062 µM [cytotoxic, full curve, poor fit]
Potency [13]: inconclusive: 21.9 µM [activator]
Potency [12]: inconclusive: 0.195 µM [rising, full curve, poor fit]
Potency [10]: inconclusive: 6.92 µM [rising, partial curve]

OC(CCl)CCl
Potency [1]: inactive
Potency [3]: inactive
Potency [7]: inconclusive: 0.0138 µM [rising, full curve, poor fit]
Potency [15]: inactive
Potency [13]: inactive
activity change, negative = inhibition [11]: inconclusive: 22.3%

CCOC(=O)c1ccc(OC(=O)CCCCCN=C(N)N)cc1
Potency [1]: inactive
Potency [2]: inactive
Potency [3]: inconclusive: 0.0119 µM [cytotoxic, full curve]
ratio activity, negative = inhibition [13]: inconclusive: -46.1%
Potency [12]: inconclusive: 11.9 µM
Potency [10]: inactive

CCCCN
Potency [1]: inactive
ratio activity, negative = inhibition [2]: inconclusive: -6.17%
Potency [13]: inconclusive: 11.6 µM [falling, single point]
Potency [12]: inconclusive: 0.259 µM [rising, partial curve, poor fit]
Potency [14]: inactive
